Measurements from the supplement of paper PMC10369915.
The list shows a part of the results. Cut-off read from the data, not from the text of the source: active = 3.2 or more and inactive = the rest. The signal is at background level for most entries.

B1: ITGA2B_Y265_YF (peptide)
chain: EFFDGYWGFSV
B2: JUP_Y22_T19I (peptide)
chain: QQIYTYDSGIH
B3: KCNH2_Y611_D609N_YF (peptide)
chain: SIKNKYVTALF
B4: ITGAE_Y549 (peptide)
chain: EEGRVYVYRLS
B5: KCNH2_Y611_Y616C (peptide)
chain: SIKDKYVTALC
B6: JAK2_Y931_YF (peptide)
chain: KLIMEYLPFGS
B7: JPH2_Y141 (peptide)
chain: GMRHGYGVRQS
B8: ITGAE_Y549_R552H_YF (peptide)
chain: EEGRVYVFHLS
B9: JUP_Y701 (peptide)
chain: DMDATYRPMYS
B10: JUP_Y644 (peptide)
chain: EGTATYAAAVL
B11: KBTBD2_Y250_P254R (peptide)
chain: VVQGLYKSMRK
B12: JAGN1_Y42_H44Y (peptide)
chain: IKKLIYVYLVI
B13: ITGAE_Y551_R552H_YF (peptide)
chain: GRVFVYHLSEQ
B14: ITGA3_Y237_S235P (peptide)
chain: WDLPEYSYKDP
B15: KCNH2_Y611_V612L (peptide)
chain: SIKDKYLTALY
B16: KCNA1_Y413_V408A_YF (peptide)
chain: ASNFNYFFHRE
B17: JAK2_Y373 (peptide)
chain: LIDGYYRLTAD
B18: KCNH2_Y475 (peptide)
chain: NFRTTYVNANE
B19: JAK2_Y372_A377E_YF (peptide)
chain: SLIDGYFRLTE
B20: JAK2_Y372_YF (peptide)
chain: SLIDGYFRLTA
B21: JAK2_Y382 (peptide)
chain: ADAHHYLCKEV
B22: ITGAE_Y551_R552H (peptide)
chain: GRVYVYHLSEQ
B23: ITGB2_Y131_D128N_YF (peptide)
chain: PINLFYLMDLS
B24: JUP_Y644_V648I (peptide)
chain: EGTATYAAAIL
B25: ITGB3_Y660_R662C (peptide)
chain: NTCNRYCCDEI
B26: JUP_Y20_T19I_YF (peptide)
chain: EWQQIYTFDSG
B27: ITGB2_Y125_D128N (peptide)
chain: RRAKGYPINLY
B28: ITK_Y198_R193Q (peptide)
chain: QRNEEYCLLDS
B29: ITGB2_Y131 (peptide)
chain: PIDLYYLMDLS
B30: ITGA2B_Y384_G380D (peptide)
chain: TDTQLYGRFGS
B31: KCNH2_Y475_N470D (peptide)
chain: DFRTTYVNANE
B32: ITGB7_Y758_YF (peptide)
chain: FDRREYSRFEK
B33: ITGA11_Y1098 (peptide)
chain: LKALKYKSMKI
B34: ITGA2B_Y845 (peptide)
chain: PSDLLYILDIQ
B35: KCNH2_Y611_D609H_YF (peptide)
chain: SIKHKYVTALF
B36: KCNH2_Y475_T473N (peptide)
chain: NFRNTYVNANE
B37: ITGA2B_Y265_G267E_YF (peptide)
chain: EFFDGYWEFSV

Assays:
Test in all cases: enrichment score (SH2-bound / input frequency) (ratio); bacterial display of known human phosphotyrosine sites (pTyr-Var adds point mutants) read by sequencing; higher = stronger binding; tyrosines were phosphorylated by kinases first
Conditions in all cases: peptide library: pTyr-Var
[1] = target: SHP2 C-SH2 domain E139D
[2] = target: SHP2 C-SH2 domain wild-type
[3] = target: SHP2 N-SH2 domain L43F
[4] = target: SHP2 N-SH2 domain T42A
[5] = target: SHP2 N-SH2 domain T52S
[6] = target: SHP2 N-SH2 domain wild-type
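Note: displayed peptides selected on beads carrying the immobilized SH2 domain, with library peptides lacking any tyrosine serving as negative controls.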

Binder	enrichment score [1]	enrichment score [2]	enrichment score [3]	enrichment score [4]	enrichment score [5]	enrichment score [6]
B1	inactive: 0.951	inactive: 0.967	inactive: 0.732	inactive: 1.09	inactive: 0.728	inactive: 0.97
B2	inactive: 1.04	inactive: 0.94	inactive: 0.869	inactive: 1.02	inactive: 0.836	inactive: 1.01
B3	inactive: 0.834	inactive: 0.734	inactive: 1.14	inactive: 0.969	inactive: 1.35	inactive: 0.782
B4	inactive: 0.76	inactive: 1.35	inactive: 0.77	inactive: 0.688	inactive: 0.954	inactive: 0.79
B5	inactive: 0.937	inactive: 0.812	inactive: 1.02	inactive: 0.725	inactive: 0.842	inactive: 0.946
B6	inactive: 1.27	inactive: 1.29	inactive: 1.2	inactive: 1.04	inactive: 1.19	inactive: 1.2
B7	inactive: 2.01	inactive: 1.31	inactive: 1.83	inactive: 1.36	inactive: 1.63	inactive: 1.53
B8	inactive: 0.811	inactive: 1.14	inactive: 0.993	inactive: 0.988	inactive: 0.698	inactive: 0.79
B9	inactive: 1.3	inactive: 0.72	inactive: 0.791	inactive: 0.41	inactive: 0.61	inactive: 0.683
B10	inactive: 0.529	inactive: 0.534	inactive: 0.524	inactive: 0.87	inactive: 0.526	inactive: 0.667
B11	inactive: 1.08	inactive: 0.639	inactive: 0.586	inactive: 0.715	inactive: 0.795	inactive: 0.662
B12	inactive: 0.621	inactive: 0.733	inactive: 0.505	inactive: 0.561	inactive: 0.832	inactive: 0.753
B13	inactive: 1.15	inactive: 1.14	inactive: 2.8	inactive: 0.86	active: 3.27	inactive: 1.4
B14	inactive: 1.28	inactive: 1.18	inactive: 1.6	inactive: 1.07	inactive: 1.36	inactive: 1.06
B15	inactive: 0.873	inactive: 0.875	inactive: 0.865	inactive: 0.807	inactive: 0.806	inactive: 1.11
B16	inactive: 1.22	inactive: 1.36	inactive: 1.26	inactive: 0.973	inactive: 1.05	inactive: 1.23
B17	inactive: 1.27	active: 3.28	inactive: 1.04	inactive: 0.975	inactive: 1.5	inactive: 0.985
B18	inactive: 1.33	inactive: 1.79	inactive: 1.16	inactive: 2.82	inactive: 1.31	inactive: 1.23
B19	inactive: 1.32	inactive: 2.59	inactive: 1.13	inactive: 1.06	inactive: 0.982	inactive: 0.908

Binder	enrichment score [1]	enrichment score [2]	enrichment score [3]	enrichment score [4]	enrichment score [5]	enrichment score [6]
B20	inactive: 1.81	active: 3.54	inactive: 1.58	inactive: 1.42	inactive: 1.65	inactive: 1.64
B21	inactive: 1.13	inactive: 1.51	inactive: 1.37	inactive: 0.933	inactive: 1.38	inactive: 1.5
B22	inactive: 1.55	inactive: 2.56	inactive: 1.73	inactive: 1.23	inactive: 1.94	inactive: 1.33
B23	inactive: 0.972	inactive: 1.19	inactive: 0.966	inactive: 0.951	inactive: 1	inactive: 1.28
B24	inactive: 0.639	inactive: 0.742	inactive: 0.445	inactive: 0.67	inactive: 0.53	inactive: 0.722
B25	inactive: 0.754	inactive: 0.982	inactive: 0.959	inactive: 0.751	inactive: 0.684	inactive: 1.05
B26	inactive: 1.44	inactive: 1.03	inactive: 1.19	inactive: 1.2	inactive: 1.25	inactive: 1.52
B27	inactive: 0.246	inactive: 0.349	inactive: 0.213	inactive: 0.266	inactive: 0.276	inactive: 0.296
B28	inactive: 0.749	inactive: 0.805	inactive: 0.695	inactive: 0.739	inactive: 0.595	inactive: 0.873
B29	inactive: 1.55	inactive: 1.88	inactive: 1.97	inactive: 2.03	inactive: 1.66	inactive: 2.21
B30	inactive: 0.682	inactive: 0.691	inactive: 0.678	inactive: 0.738	inactive: 0.602	inactive: 0.817
B31	inactive: 1.33	inactive: 2.2	inactive: 0.915	inactive: 3.17	inactive: 1.36	inactive: 1.07
B32	inactive: 0.632	inactive: 0.566	inactive: 0.619	inactive: 0.474	inactive: 0.495	inactive: 0.738
B33	inactive: 0.595	inactive: 0.88	inactive: 0.744	inactive: 0.906	inactive: 1.12	inactive: 0.743
B34	inactive: 1.22	inactive: 1.03	inactive: 0.924	inactive: 0.645	inactive: 1.5	inactive: 0.86
B35	inactive: 0.822	inactive: 0.704	inactive: 0.89	inactive: 0.837	inactive: 0.86	inactive: 0.915
B36	inactive: 1.83	inactive: 1.82	inactive: 2	inactive: 1.78	inactive: 1.64	inactive: 1.27
B37	inactive: 0.568	inactive: 1.03	inactive: 1.04	inactive: 0.788	inactive: 0.775	inactive: 1.24
